The whole screen tested about 220,000 compounds, of which about 5,700 (2.6%) were called active. Inconclusive results, whose numbers are uncertain, are shown with a selection of clear calls. Calls come from the whole dose curve; as a rule, active = well fitted inhibition curve with a large enough effect; inconclusive = small, poorly fitted or top-dose-only effect; inactive = no such curve, though single readings can be large or run the other way. A potency beside an inconclusive call is a rough fit, not a confirmed value.
Molecular target: Lysine-specific demethylase 5B (Homo sapiens) (UniProt Q9UGL1)
Chain of UniProt Q9UGL1 (Q9UGL1 whole entry, looked up): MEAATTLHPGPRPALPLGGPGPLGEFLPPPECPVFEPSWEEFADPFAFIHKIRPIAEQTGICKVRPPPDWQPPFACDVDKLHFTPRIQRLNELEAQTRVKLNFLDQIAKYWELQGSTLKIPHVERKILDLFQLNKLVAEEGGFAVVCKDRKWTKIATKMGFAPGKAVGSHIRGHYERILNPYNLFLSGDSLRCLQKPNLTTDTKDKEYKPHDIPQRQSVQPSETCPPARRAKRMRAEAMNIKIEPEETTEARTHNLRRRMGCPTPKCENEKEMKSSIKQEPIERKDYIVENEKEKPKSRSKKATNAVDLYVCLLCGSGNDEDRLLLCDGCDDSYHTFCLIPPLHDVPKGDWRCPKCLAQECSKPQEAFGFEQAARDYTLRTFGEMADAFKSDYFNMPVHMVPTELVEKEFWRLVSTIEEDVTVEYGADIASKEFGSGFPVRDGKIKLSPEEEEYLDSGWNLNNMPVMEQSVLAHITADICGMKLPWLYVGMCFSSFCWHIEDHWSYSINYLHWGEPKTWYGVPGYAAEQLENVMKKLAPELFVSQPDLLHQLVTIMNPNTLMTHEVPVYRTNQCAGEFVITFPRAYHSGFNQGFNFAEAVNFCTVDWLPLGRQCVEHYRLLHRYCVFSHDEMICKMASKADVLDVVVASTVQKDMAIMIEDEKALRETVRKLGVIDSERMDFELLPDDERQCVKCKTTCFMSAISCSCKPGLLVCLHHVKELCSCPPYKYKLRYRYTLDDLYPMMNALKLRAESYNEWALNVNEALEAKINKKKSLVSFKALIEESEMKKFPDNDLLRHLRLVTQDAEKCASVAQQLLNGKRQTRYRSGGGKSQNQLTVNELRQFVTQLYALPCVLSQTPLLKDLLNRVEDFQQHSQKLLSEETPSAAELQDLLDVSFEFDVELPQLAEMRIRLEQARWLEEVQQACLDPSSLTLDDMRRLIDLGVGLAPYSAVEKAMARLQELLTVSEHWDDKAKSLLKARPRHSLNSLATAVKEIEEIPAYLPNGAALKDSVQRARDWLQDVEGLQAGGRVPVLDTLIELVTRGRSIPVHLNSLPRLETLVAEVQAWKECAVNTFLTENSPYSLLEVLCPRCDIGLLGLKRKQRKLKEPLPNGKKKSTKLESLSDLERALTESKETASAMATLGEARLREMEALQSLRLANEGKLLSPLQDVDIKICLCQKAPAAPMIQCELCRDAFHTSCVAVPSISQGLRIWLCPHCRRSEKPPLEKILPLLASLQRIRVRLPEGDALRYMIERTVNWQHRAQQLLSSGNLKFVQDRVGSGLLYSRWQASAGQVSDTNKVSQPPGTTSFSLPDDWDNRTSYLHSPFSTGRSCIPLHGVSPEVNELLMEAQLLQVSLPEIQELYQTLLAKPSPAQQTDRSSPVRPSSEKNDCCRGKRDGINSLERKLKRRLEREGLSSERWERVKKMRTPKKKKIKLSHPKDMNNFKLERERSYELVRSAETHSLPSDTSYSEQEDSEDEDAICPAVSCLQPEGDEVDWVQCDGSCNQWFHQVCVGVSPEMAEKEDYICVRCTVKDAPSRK
Experiment: Primary screen for KDM5B Histone Demethylases FDH-coupled qHTS; note: nearly all actives have a fitted effect of over 70% in size; for activity change, negative = inhibition: 0% is about no effect
Details: FDH-coupled NADH fluorescence (FDH is formaldehyde dehydrogenase); activity change, negative = inhibition: at 57.7 µM (top of the series)
Summary of the method: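 Compound dilutions met 200 nM (final) KDM5BΔAP for 10 min at room temperature before substrate addition. The substrate mix held 12.5 µM H3K4me3 with cofactors 25 µM α-ketoglutarate and 50 µM Fe²⁺. NADH signal gain over 30 min defined activity.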
Potency is the fitted concentration of half-maximal effect; tags give direction and shape of the fitted curve.

Row | Compound | Potency | activity change, negative = inhibition
1 | COc1ccc(N=Cc2c(O)n(C)c(=O)n(C)c2=O)cc1 | inconclusive: 28.2 µM [inhibitor, single point] | 
2 | Cc1ccccc1-c1ccc2n(c1=O)C[C@H]1C[C@@H]2CN(Cc2cccs2)C1 | active: 31.6 µM | 
3 | COc1ccccc1NC(=O)N1C[C@@H]2C[C@H](C1)c1ccc(-c3ccccc3C)c(=O)n1C2 | inconclusive: 28.2 µM [inhibitor, single point] | 
4 | COc1ccc(-n2c(/C=C/c3ccco3)nc3ccccc3c2=O)cc1 | inconclusive: 28.2 µM [inhibitor, single point] | 
5 | CC(C)N1C[C@@H]2OCC(=O)N(Cc3cccnc3)[C@@H]2C1 | inconclusive: 31.6 µM [inhibitor, partial curve, poor fit] | 
6 | Cc1cc(C(C)(C)c2ccc(O)c(C)c2)ccc1O | inconclusive: 22.4 µM [inhibitor, single point] | 
7 | Cc1cc(C[C@@H]2COC[C@@H]2NC(=O)c2cn(C)c3ccccc23)on1 | inactive | 
8 | COc1ccccc1CC(=O)N1CC2(CCN(C)CC2)c2cc(OC)c(OCc3ccccc3)cc21 | inactive | 
9 | CCC(CC)C(=O)NC[C@H]1C[C@@H]2CCN1C[C@@H]2c1cc(-c2ccccc2Br)nc(C)n1 | inactive | 
10 | O[C@H]1[C@H](NCc2ccncc2)[C@H]2CO[C@H](O2)[C@@H]1N1CCOCC1 | inactive | 
11 | CCOc1ccc(N2C(=O)NC(=O)/C(=C\c3ccccc3[N+](=O)[O-])C2=O)cc1 | inconclusive: 17.8 µM [inhibitor, partial curve, poor fit] | 
12 | Cn1nc(-c2ccc3ccccc3c2)cc1[C@H]1CN2CC[C@H]1C[C@@H]2CNS(=O)(=O)c1ccccc1 | inactive | 
13 | O=S1(=O)N(Cc2ccccc2)CCCN1Cc1ccc(F)cc1Cl | inconclusive: 39.8 µM [inhibitor, single point] | 
14 | CC(=O)Nc1ccc(S(=O)(=O)N2C[C@@H]3C[C@H](C2)c2c(-c4cccs4)ccc(=O)n2C3)cc1 | inconclusive: 14.1 µM [inhibitor, partial curve, poor fit] | 
15 | C=CCOc1ccc(/C=C(\C)[N+](=O)[O-])cc1OC | inconclusive: 17.8 µM [inhibitor, partial curve, poor fit] | 
16 | Cc1ccccc1-c1ccc2n(c1=O)C[C@H]1C[C@@H]2CN(C(=O)c2cccs2)C1 | inconclusive: 31.6 µM [inhibitor, single point] | 
17 | O=C1NC(=O)N(c2cccc(F)c2)C(=O)/C1=C/c1ccc(N2CCOCC2)cc1 | inconclusive: 28.2 µM [inhibitor, partial curve, poor fit] | 
18 | CCC(CN)c1ccccc1 (stereo unspecified) | inactive | 
19 | Cc1ccc(C(=O)N2[C@H]3CC[C@@H]2c2cnc(-c4ccccc4)nc2C3)cn1 | inconclusive: 3.16 µM [inhibitor, partial curve, poor fit] | 
20 | COCCOC1CCN(C(=O)c2nn(C)c3ccccc23)CC1 | inactive | 
21 | COCCC(=O)N1CCC2(CC1)C(=O)Nc1cc(Oc3cccc(N(C)C)c3)c(OC)cc12 | inactive | 
22 | CCCS(=O)(=O)Nc1ccc2n(c1=O)C[C@H]1C[C@@H]2CN(Cc2cn(C)c3ccccc23)C1 | inconclusive: 22.4 µM [inhibitor, single point] | 

Row | Compound | Potency | activity change, negative = inhibition
23 | Oc1ccc(Cl)cc1Cc1ccccc1 | inconclusive: 14.1 µM [inhibitor, partial curve, poor fit] | 
24 | CCOc1ccccc1NC(=O)c1cn(CC)c2ccccc12 | inconclusive: 28.2 µM [inhibitor, single point] | 
25 | BrCC1C[n+]2c(SCc3ccccc3)nc3sc4c(c3c2O1)CCCC4 (stereo unspecified) | inconclusive: 28.2 µM [inhibitor, partial curve, poor fit] | 
26 | Cc1ccc(Cn2nc(C)c(C(=O)NCc3cc(Cl)c4c(c3)OCCCO4)c2Cl)cc1 | inactive | 
27 | CN(Cc1ccccc1)Cc1cn(C[C@H]2CC3CCN2C[C@@H]3C(=O)NCc2ccc(F)cc2)nn1 (stereo partly specified) | inactive | 
28 | CN1C(=O)NC(=O)/C(=C/c2ccc([N+](=O)[O-])s2)C1=O | inconclusive: 14.1 µM [inhibitor, partial curve, poor fit] | 
29 | CCN(CC)C(=O)c1ccc(NC(=O)CCn2nc(-c3ccc(C)cc3)c3ccccc3c2=O)cc1 | inconclusive: 17.8 µM [inhibitor, partial curve, poor fit] | 
30 | CC[C@H]1CN2CC[C@H]1C[C@@H]2CNC(=O)c1ccc(C(F)(F)F)cc1 | inactive | 
31 | O=C(Cc1cccc(Cl)c1)N1[C@H]2CC[C@@H]1c1cnc(-c3ccccc3)nc1C2 | inactive | 
32 | CCOc1ccc(CN(CCc2ccc3c(c2)OCO3)Cc2cccc(C)c2)cc1 | inconclusive: 15.8 µM [inhibitor, partial curve, poor fit] | 
33 | O=C(CN1CC=C(c2ccccc2)CC1)N(C1CCCC1)C1CCS(=O)(=O)C1 (stereo unspecified) | inactive | 
34 | COC(=O)c1ccc(NC(=O)N2[C@H]3CC[C@@H]2c2cnc(C)nc2C3)cc1 | inactive | 
35 | C=CCNC(=O)NC[C@H]1C[C@@H]2CCN1C[C@@H]2c1cc(-c2ccco2)nc(C)n1 | inconclusive: 39.8 µM [inhibitor, partial curve, poor fit] | 
36 | CCN(CC)C(=O)c1ccc(NC(=O)CCn2nc(-c3ccc(Cl)cc3)c3ccccc3c2=O)cc1 | inconclusive: 39.8 µM [inhibitor, single point] | 
37 | COc1ccc(CN2CCN(C(=O)COc3ccccc3)CC2)c(OC)c1 | inconclusive: 2.24 µM [inhibitor, full curve, poor fit] | 
38 | Cc1cccc(C2CC(=O)Oc3c2c(=O)oc2ccccc32)c1 (stereo unspecified) | inconclusive: 14.1 µM [inhibitor, partial curve, poor fit] | 
39 | COCCn1c(C)cc(C(=O)NC2CCc3nnc(C)n3CC2)c1C (stereo unspecified) | inactive | 
40 | CC[C@H]1CN2CC[C@H]1C[C@@H]2COC(=O)Nc1ccc(C(C)(C)C)cc1 | active: 28.2 µM | 
41 | CCC(CC)c1cc([C@H]2CN3CC[C@H]2C[C@@H]3CNS(=O)(=O)c2cccs2)nc(-c2ccncc2)n1 | inconclusive: 31.6 µM [inhibitor, partial curve, poor fit] | 
42 | Cc1noc(C)c1COc1ccc(CC(=O)N2CCN(CC(=O)N3CCOCC3)CC2)cc1 | inactive | 
43 | Cn1nc(C2CCCCC2)cc1[C@H]1CN2CC[C@H]1C[C@@H]2CNC(=O)Nc1ccccc1 | inactive | 
44 | Cc1cccc2sc(NC(=O)c3cccn(Cc4ccccc4)c3=O)nc12 |  | inconclusive: -31.9% [inhibitor]

Row | Compound | Potency | activity change, negative = inhibition
45 | O=C([C@H]1CN2CCC1C[C@@H]2Cn1cc(-c2ccccn2)nn1)N1CCOCC1 (stereo partly specified) | inconclusive: 35.5 µM [inhibitor, partial curve, poor fit] | 
46 | O=C(COc1ccc(Br)cc1)N1CCN(Cc2ccc3c(c2)OCO3)CC1 | inconclusive: 10 µM [inhibitor, partial curve, poor fit] | 
47 | COc1ccccc1-c1ccc(N2CC3CC(C2)c2cccc(=O)n2C3)nn1 (stereo unspecified) | inconclusive: 14.1 µM [inhibitor, partial curve] | 
48 | CN1CCN(C(=O)Cc2c[nH]c3ncc(-c4ccnn4C)cc23)CC1 | inconclusive: 31.6 µM [inhibitor, partial curve, poor fit] | 
49 | Cc1ccccc1-c1ccc2n(c1=O)C[C@H]1C[C@@H]2CN(C(=O)NC(C)C)C1 | active: 35.5 µM | 
50 | Cc1nc(-c2ccc(N(C)C)cc2)cc([C@H]2CN3CC[C@H]2C[C@@H]3CNCc2cccc(C#N)c2)n1 | inconclusive: 31.6 µM [inhibitor, partial curve, poor fit] | 
51 | O=C(NCc1ccccc1)[C@H]1CN2CCC1C[C@@H]2Cn1cc(-c2ccccc2)nn1 (stereo partly specified) | inactive | 
52 | CCOc1cc(CNCCc2ccccc2F)ccc1OC | inconclusive: 25.1 µM [inhibitor, partial curve, poor fit] | 
53 | CCCCCCC(=O)N/N=C/c1c(O)n(C(C)CC)c(=S)[nH]c1=O (stereo unspecified) | inconclusive: 28.2 µM [inhibitor, single point] | 
54 | C1CC(NC2CCOCC2)CCN1 | inconclusive: 8.91 µM [inhibitor, partial curve, poor fit] | 
55 | CCCSc1ncc(CN2CCCC3(CCNC3)C2)cn1 (stereo unspecified) | inconclusive: 4.47 µM [inhibitor, full curve, poor fit] | 
56 | CC1CCC(c2nnnn2-c2ccccc2)(N2CCOCC2)CC1 (stereo unspecified) | inactive | 
57 | O=C1CO[C@H]2CN(Cc3ccncc3)C[C@H]2N1Cc1ccccc1 | inconclusive: 39.8 µM [inhibitor, partial curve, poor fit] | 
58 | Cc1ncc2c(n1)C[C@@H]1CC[C@H]2N1C(=O)NCc1ccccc1 | inactive | 
59 | Cc1c(C=O)c(C)n(C(C)C)c1C | inactive | 
60 | Cc1nonc1CC(=O)N1C[C@H](O)[C@@H](N2CCC(O)CC2)C1 | inconclusive: 35.5 µM [inhibitor, single point] | 
61 | COc1cc2c(cc1OCc1ccccc1)NC(=O)C21CCN(C(=O)c2cccnc2)CC1 | inactive | 
62 | CN1[C@@H](CCC(=O)NCc2cccnc2)CNC(=O)[C@H]2NCC[C@H]21 | inactive | 
63 | N#Cc1ccccc1S(=O)(=O)N1C[C@@H]2C[C@H](C1)c1ccc(-c3ccc(Cl)cc3)c(=O)n1C2 | active: 35.5 µM | 
64 | CN1CCC(N[C@@H]2C[C@H](CO)[C@@H](O)[C@H]2O)CC1 | inconclusive: 39.8 µM [inhibitor, single point] | 
65 | CC(=O)NC[C@H]1C[C@@H]2CCN1C[C@@H]2c1cc(-c2cccs2)nn1C | inactive | 
66 | COc1ccccc1CN1CCN(C(=O)COc2cccc(C)c2)CC1 | inconclusive: 28.2 µM [inhibitor, partial curve, poor fit] | 

Reference: PubChem BioAssay AID1347165 (National Center for Advancing Translational Sciences (NCATS), 2019)
